# PubChem BioAssay (Tox21)
# “And” between values parts separate entries of the source, which are not always exact repeats. Identical values can stand only once. This list was built around the results that the source calls inconclusive (neither active nor inactive); the mix of calls is not that of the screen. For some of these results: Potencies beside an inconclusive call are fits to weak or partial responses and may not hold up. Where a structure was tested more than once in an assay, its records may differ in their call. The source made the active and inactive calls. Unless noted, calls follow the shape of the dose curve; as a rule, active = well fitted curve in the direction sought with a large enough effect in the repeat runs; inconclusive = weak or mixed curves; inactive = no such curve, though single readings can be large; an effect the other way counts as inactive or inconclusive.
# Experiments:
# [1] = molecular target: Thyrotropin receptor (Homo sapiens) (UniProt P16473); assay: qHTS assay to identify small molecule agonists of the thyroid stimulating hormone receptor (TSHR) signaling pathway (AID 1224843; calls by dose curve; also: nearly all actives have a fitted effect of over 45% in size; also: potency is read from the fitted curve at half-maximal effect; as to activation: % is scaled to controls: 0 for no effect and ±100 for the full control effect); conditions: TSHR-HEK293 cells, cAMP HTRF, agonist mode, 30 min; activation: at 92.4 µM (top of the series) unless noted
# Outline: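 Agonist-mode screen: TSHR HEK293 cells received test chemicals for half an hour at room temperature, then HTRF cAMP detection reagents for one hour prior to fluorescence measurement. Each chemical ran as a 15-concentration series, triplicated.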
# [2] = qHTS assay to identify small molecule agonists of the hypoxia (HIF-1) signaling pathway - cell viability counter screen (AID 1224844; calls by dose curve; also: potency is read from the fitted curve at half-maximal effect; nearly all actives have a fitted effect of over 50% in size)
# Outline: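 HRE-bla ME-180; 0.5% dFBS; cpd 17 h, 37C, 5% CO2; CellTiter-Glo lum., 30 min RT, post-FRET read, same wells.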
# [3] = qHTS assay to identify small molecule agonists of H2AX (AID 1224845; active = well fitted activation curve with a large enough effect in the signal ratio in the repeat runs, not every such curve was filed as active; inconclusive = weak or mixed curves; the % refers to the signal ratio; also: potency is read from the fitted curve at half-maximal effect; as to activation (H2AX phosphorylation): % is scaled to controls: 0 for no effect and ±100 for the full control effect); conditions: CHO-K1 phospho-H2AX Ser139 HTRF, 3 h; activation (H2AX phosphorylation): at 154 µM (top of the series)
# Outline: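 Wild-type CHO-K1 cells, plated overnight, exposed 3hr at 37C to 15 concentrations (0.76% DMSO final). Lysed, then HTRF anti-pH2AX (S139) cryptate and anti-H2AX-d2 antibodies, 24 hr room temperature; 665/620 nm emission read.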
# [4] = qHTS assay to identify small molecule agonists of H2AX - cell viability counter screen (AID 1224847; calls by dose curve; also: potency is read from the fitted curve at half-maximal effect; nearly all actives have a fitted effect of over 30% in size)
# Outline: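 CHO-K1 wt, 1000 cells/well, o/n 37C; cpds 15 conc, 3 h 37C, 0.76% DMSO; CellTiter-Glo, 30 min RT, luminescence.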
# [5] = qHTS assay to identify small molecule antagonists of the estrogen related receptor (ERR) signaling pathway from Tox21 library (AID 1224848); also: nearly all actives have a fitted effect of over 50% in size; also: potency is read from the fitted curve at half-maximal effect
# Outline: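 Quantitative high-throughput format: ERR reporter cells (2,000/well) pre-incubated 6 h, treated 18 h at 37 C with compounds in DMSO alongside positive and negative controls, then read by ONE-Glo luminescence.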
# [6] = qHTS assay to identify small molecule agonists of the estrogen related receptor (ERR) signaling pathway from Tox21 library (AID 1224849; calls by dose curve; also: % is scaled to controls: 0 for no effect and ±100 for the full control effect; nearly all actives have a fitted effect of over 15% in size); conditions: ERR reporter cell line, ONE-Glo luciferase, 18 h
# Outline: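 Tox21 compounds tested for ERR agonism in an NTP reporter cell line: 18 h treatment at 37 C, then ONE-Glo luminescence.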
# [7] = qHTS RealTime-Glo MT Cell Viability Assay in HEK293 cells - 32 hour (AID 1224868); also: potency is read from the fitted curve at half-maximal effect; nearly all actives have a fitted effect of over 50% in size
# Outline: (§1)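 Nonlytic real-time viability readout: viable cells convert prosubstrate to NanoLuc substrate, giving luminescence proportional to live cell number. HEK293, 600 cells/well, compound added after 5 h, continuous culture at 37 C.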
# [8] = A CellTox Green Cytotoxicity Assay to monitor cytotoxicity in HEK293 cells - 40 hour (AID 1224871); also: potency is read from the fitted curve at half-maximal effect; nearly all actives have a fitted effect of over 45% in size
# Outline: (§2)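 Tox21 screen in HEK293: membrane-impermeant cyanine dye fluoresces on binding dead-cell DNA; compound pinned 5 h post-seeding, plates held at 37 C, signal read repeatedly through 40 h.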
# [9] = qHTS RealTime-Glo MT Cell Viability Assay in HEK293 cells - 16 hour (AID 1224872); also: potency is read from the fitted curve at half-maximal effect; nearly all actives have a fitted effect of over 50% in size
# Outline: as §1
# [10] = qHTS RealTime-Glo MT Cell Viability Assay in HEK293 cells - 40 hour (AID 1224874); conditions: RealTime-Glo luminescence; max response: stronger effect = lower value; also: nearly all actives have a fitted effect of over 50% in size; also: potency is read from the fitted curve at half-maximal effect; as to max response: % is scaled to controls: 0 for no effect and ±100 for the full control effect
# Outline: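 HEK293 + NanoLuc + prosubstrate, 600 cells/well; 5 h, 37 C/5% CO2; compound 23 nL in DMSO by pintool; 37 C; luminescence read at 0, 8, 16, 24, 32 and 40 h time points.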
# [11] = qHTS assay to identify small molecule antagonists of the estrogen related receptor signaling pathway with the pleiotropic PPARgamma coactivator (PGC) from Tox21 10K library (AID 1224841; call rule not given here)
# Outline: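 Test chemicals dissolved in DMSO were applied to pre-incubated (6 h) PGC/ERR cells at 2,000 cells/well for an 18 h, 37 C treatment; reporter luminescence was then read using One-Glo.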
# [12] = qHTS assay to identify small molecule agonists of the estrogen related receptor signaling pathway with the pleiotropic PPARgamma coactivator (PGC) from Tox21 10K library (AID 1224842); also: potency is read from the fitted curve at half-maximal effect; nearly all actives have a fitted effect of over 15% in size
# Outline: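 PGC/ERR reporter cell line, 2,000 cells per well, incubated 6 h at 37 C before 23 nL compound in DMSO was added. After 18 h at 37 C, One-Glo luminescence read following 30 min at room temperature.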
# [13] = qHTS assay to identify small molecule agonists of the hypoxia (HIF-1) signaling pathway (AID 1224846; active = well fitted activation curve with a large enough effect in the signal ratio in the repeat runs, not every such curve was filed as active; inconclusive = weak or mixed curves; the % refers to the signal ratio; also: potency is read from the fitted curve at half-maximal effect); conditions: HRE-bla ME-180 cells, beta-lactamase ratio, 17 h; activation: at 76.8 µM (top of the series) unless noted
# Outline: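 Reporter induction in HRE-bla ME-180 cells is taken as agonism: cells sit 5 hrs after plating, receive compounds or DMSO only, incubate 17 hrs at 37C under 5% CO2, and are loaded with CCF4-AM for beta-lactamase FRET measurement.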
# [14] = qHTS RealTime-Glo MT Cell Viability Assay in HepG2 cells - 8 hour (AID 1224873); also: potency is read from the fitted curve at half-maximal effect; nearly all actives have a fitted effect of over 55% in size
# Outline: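 HepG2 cells (600/well) mixed with RealTime-Glo MT reagent, settled 5 h at 37 C/5% CO2 before compound addition. Nonlytic NanoLuc luminescence from viable-cell prosubstrate reduction read repeatedly during 40 h treatment at 37 C.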
# [15] = A CellTox Green Cytotoxicity Assay to monitor cytotoxicity in HEK293 cells - 0 hour (AID 1224869)
# Outline: as §2
# [16] = qHTS RealTime-Glo MT Cell Viability Assay in HepG2 cells - 24 hour (AID 1224867)
# Outline: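 Luminescence read-out: viable HepG2 cells reduce a prosubstrate to a NanoLuc substrate, giving a signal proportional to live cell number. Reads taken at 0, 8, 16, 24, 32 and 40 h of compound exposure at 37 C.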
# Tags tell the direction and shape of the fitted curve or compound fluorescence and quenching.
# UniProt P16473, sequence (P16473 whole entry, looked up): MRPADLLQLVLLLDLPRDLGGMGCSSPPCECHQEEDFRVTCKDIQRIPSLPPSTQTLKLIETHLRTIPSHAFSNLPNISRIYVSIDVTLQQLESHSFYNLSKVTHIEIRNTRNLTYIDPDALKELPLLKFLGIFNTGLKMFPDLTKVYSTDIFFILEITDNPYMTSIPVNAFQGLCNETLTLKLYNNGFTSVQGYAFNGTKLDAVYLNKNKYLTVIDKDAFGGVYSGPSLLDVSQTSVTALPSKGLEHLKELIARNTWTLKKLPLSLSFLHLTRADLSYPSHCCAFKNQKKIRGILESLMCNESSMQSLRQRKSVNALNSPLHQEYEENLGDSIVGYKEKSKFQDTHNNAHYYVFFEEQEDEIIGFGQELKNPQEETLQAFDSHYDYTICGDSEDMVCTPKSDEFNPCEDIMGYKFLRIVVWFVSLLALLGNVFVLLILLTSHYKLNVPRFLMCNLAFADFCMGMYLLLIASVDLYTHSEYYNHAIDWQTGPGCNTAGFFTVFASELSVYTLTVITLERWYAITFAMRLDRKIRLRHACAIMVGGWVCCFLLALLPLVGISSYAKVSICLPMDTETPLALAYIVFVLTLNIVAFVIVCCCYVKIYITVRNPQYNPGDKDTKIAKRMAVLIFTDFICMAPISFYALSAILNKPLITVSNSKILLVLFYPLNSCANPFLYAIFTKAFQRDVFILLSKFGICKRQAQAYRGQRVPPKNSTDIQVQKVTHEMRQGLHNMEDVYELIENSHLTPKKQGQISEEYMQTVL
structure (smiles),measurement,setting,value
O=C(Nc1ccc(Br)cc1)c1cc(Br)cc(Br)c1O,activation,[1],inconclusive: 9.17% and inconclusive: 24.1%
same,Potency,[2],"inconclusive: 26.8 µM [cytotoxic, partial curve, poor fit]"
same,Potency,[3],"inconclusive: 113 µM [activator, partial curve, poor fit] and inconclusive: 49.2 µM [activator, partial curve]"
same,Potency,[4],active: 28.3 µM and active: 35.7 µM and active: 39.1 µM
same,Potency,[5],"inconclusive: 24.2 µM [inhibitor, partial curve, poor fit] and inconclusive: 5.31 µM [inhibitor, full curve, poor fit]"
same,"activity change, positive = activation",[6]; at 42.5 µM (top of the series),inactive: -35.9%
same,"activity change, positive = activation",[6]; at 92.4 µM (top of the series),inactive: -31.1% and inactive: -48%
same,Potency,[7],"active: 21.8 µM and active: 21.9 µM and inconclusive: 12 µM [cytotoxic, full curve]"
same,Potency,[8],"inconclusive: 54.7 µM [activator, single point]"
same,Potency,[9],"inconclusive: 34.7 µM [cytotoxic, partial curve] and inconclusive: 16.9 µM [cytotoxic, partial curve, poor fit]"
same,Potency,[10],"inconclusive: 12 µM [cytotoxic, full curve]"
CC(C)(O)c1cnn2c(-c3ccc(F)c(-c4c(F)cccc4C#N)c3)cnc2n1,Potency,[11],"inconclusive: 61.1 µM [falling, partial curve]"
same,Potency,[2],active: 54.9 µM
same,Potency,[4],"inconclusive: 113000 nM [cytotoxic, single point]"
same,Potency,[8],"inconclusive: 61.6 µM [activator, single point]"
same,Potency,[9],active: 5490 nM
same,Potency,[10],active: 4.9 µM
CCC(C)(C)C(=O)OC1=C(c2ccc(Cl)cc2Cl)C(=O)OC12CCCCC2,Potency,[12],"inconclusive: 48.6 µM [activator, partial curve]"
same,Potency,[2],active: 49 µM
same,Potency,[13],inconclusive: 54.9 µM
same,"activity change, positive = activation",[6]; at 92.4 µM (top of the series),inconclusive: 13.3%
CCC[CH2][Sn]([CH2]CCC)([O]C(C)=O)[O]C(C)=O,Potency,[11],active: 0.0347 µM
same,Potency,[3],active: 906 nM
same,Potency,[13],"inconclusive: 0.197 µM [falling, full curve]"
COc1ccc(C=O)cc1O,Potency,[11],"inconclusive: 10.9 µM [falling, full curve, poor fit]"
same,Potency,[5],inactive
C=C(C)C(=O)[O][Sn]([CH2]CCC)([CH2]CCC)[CH2]CCC,Potency,[11],"inconclusive: 7.7 µM [falling, partial curve, poor fit]"
same,Potency,[1],active: 0.486 µM
same,Potency,[3],inconclusive: 401 nM [activator]
same,Potency,[4],active: 713 nM
same,Potency,[5],active: 486 nM
same,Potency,[9],active: 389 nM
same,Potency,[14],active: 0.616 µM
CS(=O)(=O)c1ccc(C(=O)C2C(=O)CCCC2=O)c([N+](=O)[O-])c1,activation,[1],inconclusive: 28.4%
same,Potency,[2],"inconclusive: 31.5 µM [cytotoxic, partial curve, poor fit]"
same,Potency,[3],inconclusive: 51400 nM
same,Potency,[7],"inconclusive: 14.1 µM [cytotoxic, full curve]"
same,Potency,[15],active: 44.4 µM
same,Potency,[8],active: 44.4 µM
same,Potency,[10],inconclusive: 29.7 µM [cytotoxic]
O=C(O)C1C2CCC(O2)C1C(=O)O (stereo not drawn),Potency,[12],active: 55.1 µM and active: 19.9 µM
same,Potency,[3],active: 102000 nM
same,"activity change, positive = activation",[6]; at 92.4 µM (top of the series),inconclusive: 7.38%
same,Potency,[7],"inconclusive: 55.6 µM [cytotoxic, partial curve] and inconclusive: 11.3 nM [cytotoxic, full curve, poor fit]"
same,Potency,[10],"inconclusive: 55.6 µM [cytotoxic, partial curve] and inconclusive: 11.3 nM [cytotoxic, full curve, poor fit]"
CCOC(=O)C1(c2ccccc2)CCN(CCc2ccc(N)cc2)CC1,Potency,[11],"inconclusive: 33.5 µM [falling, partial curve, poor fit]"
same,Potency,[3],inactive
same,max response,[10],inactive: -22.8%
CCC[CH2][Sn]([CH2]CCC)([CH2]CCC)[O]C(=O)c1ccccc1,Potency,[11],"inconclusive: 0.864 µM [falling, full curve, poor fit]"
same,Potency,[2],active: 0.549 µM
same,Potency,[13],"inconclusive: 0.549 µM [falling, full curve]"
same,Potency,[4],active: 713 nM
same,Potency,[5],active: 486 nM
same,Potency,[16],active: 0.49 µM
same,Potency,[7],active: 0.389 µM
same,Potency,[9],active: 436 nM
same,Potency,[14],active: 0.776 µM
same,Potency,[10],active: 0.389 µM
